# Data taken from PMC5522103.
# The chains behind the UniProt entries cited, without tags or fusion partners.
# UniProt P23771: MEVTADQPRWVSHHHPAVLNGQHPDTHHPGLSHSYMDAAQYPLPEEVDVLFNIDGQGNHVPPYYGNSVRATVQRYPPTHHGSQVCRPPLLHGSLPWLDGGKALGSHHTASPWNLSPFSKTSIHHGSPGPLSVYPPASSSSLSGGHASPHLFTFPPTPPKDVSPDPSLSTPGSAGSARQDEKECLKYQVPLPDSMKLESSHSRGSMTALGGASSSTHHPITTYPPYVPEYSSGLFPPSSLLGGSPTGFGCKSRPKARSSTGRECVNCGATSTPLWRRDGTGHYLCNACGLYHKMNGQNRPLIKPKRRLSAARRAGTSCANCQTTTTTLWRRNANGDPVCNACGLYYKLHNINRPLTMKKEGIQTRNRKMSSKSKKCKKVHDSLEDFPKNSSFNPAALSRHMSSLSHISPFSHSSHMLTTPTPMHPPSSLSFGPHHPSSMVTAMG
# Results are given in words; binding and its absence hold for the method and conditions named. Binding seen in cells or lysates may run through a third protein. Some binding calls cover weakened binding; strength is not graded here.
# T1: Ell3 (transcription elongation factor, eleven-nineteen lysine-rich leukemia family) (human (endogenous in MCF7)) (UniProt Q9HB65)
# T1 sequence: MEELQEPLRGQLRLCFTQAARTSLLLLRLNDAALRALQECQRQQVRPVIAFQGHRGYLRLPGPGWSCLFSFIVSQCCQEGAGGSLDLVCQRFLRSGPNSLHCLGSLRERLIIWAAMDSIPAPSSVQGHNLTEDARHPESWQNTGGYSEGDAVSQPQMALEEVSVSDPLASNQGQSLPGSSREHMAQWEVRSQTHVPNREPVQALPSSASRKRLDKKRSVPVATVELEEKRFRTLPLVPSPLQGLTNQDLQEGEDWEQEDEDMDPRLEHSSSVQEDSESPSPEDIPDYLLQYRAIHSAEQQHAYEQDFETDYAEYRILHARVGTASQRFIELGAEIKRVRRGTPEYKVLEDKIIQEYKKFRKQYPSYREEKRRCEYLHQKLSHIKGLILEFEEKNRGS
# T2: Estrogen receptor alpha (human (endogenous in MCF7)), P03372
# T2 chain: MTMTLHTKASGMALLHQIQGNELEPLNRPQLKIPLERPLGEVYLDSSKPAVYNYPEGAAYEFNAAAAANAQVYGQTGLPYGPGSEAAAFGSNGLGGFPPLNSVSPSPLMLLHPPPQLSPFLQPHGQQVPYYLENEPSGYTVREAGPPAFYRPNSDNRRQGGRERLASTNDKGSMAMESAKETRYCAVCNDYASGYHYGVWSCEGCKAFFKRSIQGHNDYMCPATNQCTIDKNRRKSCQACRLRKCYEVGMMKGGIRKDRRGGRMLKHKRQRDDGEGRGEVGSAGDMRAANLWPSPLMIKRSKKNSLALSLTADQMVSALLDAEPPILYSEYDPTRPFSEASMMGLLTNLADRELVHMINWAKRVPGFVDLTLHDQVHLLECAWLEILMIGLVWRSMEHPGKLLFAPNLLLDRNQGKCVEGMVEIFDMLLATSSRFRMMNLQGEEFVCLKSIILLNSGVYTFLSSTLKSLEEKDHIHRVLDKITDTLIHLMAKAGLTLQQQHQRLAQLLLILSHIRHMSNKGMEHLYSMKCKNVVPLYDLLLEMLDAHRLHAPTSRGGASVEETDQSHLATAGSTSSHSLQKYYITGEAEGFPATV
# T3: FOXA1 (human (endogenous in MCF7)) (UniProt P55317)
# T3 sequence: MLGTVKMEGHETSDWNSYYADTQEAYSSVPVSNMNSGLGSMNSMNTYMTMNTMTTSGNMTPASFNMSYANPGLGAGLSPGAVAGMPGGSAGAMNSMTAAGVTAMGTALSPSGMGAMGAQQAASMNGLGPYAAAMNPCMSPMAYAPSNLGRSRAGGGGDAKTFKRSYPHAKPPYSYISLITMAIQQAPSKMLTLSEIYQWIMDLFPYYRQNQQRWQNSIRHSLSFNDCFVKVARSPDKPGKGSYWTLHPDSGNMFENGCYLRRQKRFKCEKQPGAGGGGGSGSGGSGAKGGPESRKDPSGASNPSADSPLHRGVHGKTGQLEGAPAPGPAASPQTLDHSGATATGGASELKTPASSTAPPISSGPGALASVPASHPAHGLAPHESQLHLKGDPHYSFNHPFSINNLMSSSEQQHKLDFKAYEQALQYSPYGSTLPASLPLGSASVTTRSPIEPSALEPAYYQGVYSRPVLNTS
# How the values were obtained:
# Assay in all cases: co-IP; endogenous proteins in MCF7 cell lysates; lysates incubated with 4 ug of antibody (anti-ER(α), anti-Ell3, anti-GATA3 or anti-FOXA1) for 16 h at 4°C, then protein G beads 1 h at 4°C; beads washed once in lysis buffer; western blot
# [1] = target: Estrogen receptor alpha (human (endogenous in MCF7)) (UniProt P03372)
# [2] = target: T1, Ell3 (transcription elongation factor, eleven-nineteen lysine-rich leukemia family) (human (endogenous in MCF7))
# [3] = target: T2, Estrogen receptor alpha (human …); conditions: remark: other sources report otherwise
# [4] = target: GATA3 (human (endogenous in MCF7)) (UniProt P23771)
# [5] = target: T3, FOXA1 (human (endogenous in MCF7))
binding [1],binding [4],Molecule,further results
binds,–,GATA3 (from UniProt P23771 1-443),–
–,–,Estrogen receptor alpha (from UniProt P03372 1-595),binding [2]: binds
–,–,"FOXA1, P55317 1-472 (protein) MLGTVKMEGHETSDWNSYYADTQEAYSSVPVSNMNSGLGSMNSMNTYMTMNTMTTSGNMTPASFNMSYANPGLGAGLSPGAVAGMPGGSAGAMNSMTAAGVTAMGTALSPSGMGAMGAQQAASMNGLGPYAAAMNPCMSPMAYAPSNLGRSRAGGGGDAKTFKRSYPHAKPPYSYISLITMAIQQAPSKMLTLSEIYQWIMDLFPYYRQNQQRWQNSIRHSLSFNDCFVKVARSPDKPGKGSYWTLHPDSGNMFENGCYLRRQKRFKCEKQPGAGGGGGSGSGGSGAKGGPESRKDPSGASNPSADSPLHRGVHGKTGQLEGAPAPGPAASPQTLDHSGATATGGASELKTPASSTAPPISSGPGALASVPASHPAHGLAPHESQLHLKGDPHYSFNHPFSINNLMSSSEQQHKLDFKAYEQALQYSPYGSTLPASLPLGSASVTTRSPIEPSALEPAYYQGVYSRPVLNTS",binding [3]: binds
–,binds,"FOXA1 (protein, UniProt P55317 1-472) MLGTVKMEGHETSDWNSYYADTQEAYSSVPVSNMNSGLGSMNSMNTYMTMNTMTTSGNMTPASFNMSYANPGLGAGLSPGAVAGMPGGSAGAMNSMTAAGVTAMGTALSPSGMGAMGAQQAASMNGLGPYAAAMNPCMSPMAYAPSNLGRSRAGGGGDAKTFKRSYPHAKPPYSYISLITMAIQQAPSKMLTLSEIYQWIMDLFPYYRQNQQRWQNSIRHSLSFNDCFVKVARSPDKPGKGSYWTLHPDSGNMFENGCYLRRQKRFKCEKQPGAGGGGGSGSGGSGAKGGPESRKDPSGASNPSADSPLHRGVHGKTGQLEGAPAPGPAASPQTLDHSGATATGGASELKTPASSTAPPISSGPGALASVPASHPAHGLAPHESQLHLKGDPHYSFNHPFSINNLMSSSEQQHKLDFKAYEQALQYSPYGSTLPASLPLGSASVTTRSPIEPSALEPAYYQGVYSRPVLNTS",–
binds,binds,"Ell3 (transcription elongation factor, eleven-nineteen lysine-rich leukemia family) (protein, UniProt Q9HB65 1-397) MEELQEPLRGQLRLCFTQAARTSLLLLRLNDAALRALQECQRQQVRPVIAFQGHRGYLRLPGPGWSCLFSFIVSQCCQEGAGGSLDLVCQRFLRSGPNSLHCLGSLRERLIIWAAMDSIPAPSSVQGHNLTEDARHPESWQNTGGYSEGDAVSQPQMALEEVSVSDPLASNQGQSLPGSSREHMAQWEVRSQTHVPNREPVQALPSSASRKRLDKKRSVPVATVELEEKRFRTLPLVPSPLQGLTNQDLQEGEDWEQEDEDMDPRLEHSSSVQEDSESPSPEDIPDYLLQYRAIHSAEQQHAYEQDFETDYAEYRILHARVGTASQRFIELGAEIKRVRRGTPEYKVLEDKIIQEYKKFRKQYPSYREEKRRCEYLHQKLSHIKGLILEFEEKNRGS",binding [5]: no binding
